Where a name gives a salt, the structure may show the parent alone. Whole data set: some 2,000 compounds, median “fractional viability relative to vehicle” near 0.91, cut for the lowest 2% near 0.045. This is one part of the list.

The assay concerns TYKNU. The assay can be described thus: fractional viability relative to vehicle; TYKNU is a high-grade serous ovarian cancer line; higher = less growth inhibition. Particulars: 72 h. Put shortly: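 TYKNU control cells or lentiCRISPRv2 knockout derivatives were plated at 500 cells per well in duplicate into drug-stamped 384-well plates holding a ~2100-compound library at 2 or 10 μM. Culture was in RPMI 1640 with 10% FBS at 37 °C in 5% CO2, with 72 h of drug treatment. Viability was measured by Cell Titer Glo luminescence, and the averaged duplicate treatment wells were normalised to duplicate control wells at the same plate position.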

[1] abbreviates: 2uM, genotype: DNM1L knockout (sgDNM1L #1).
Setting [2] is: 2uM, genotype: sgCTRLA1 (non-targeting control).
Setting [3] is: 10uM, genotype: DNM1L knockout (sgDNM1L #1).
Setting [4] is: 10uM, genotype: sgCTRLA1 (non-targeting control).

For the compound `Cc1sc2c(c1C)C(c1ccc(Cl)cc1)=N[C@@H](CC(N)=O)c1nnc(C)n1-2`, the fractional viability runs as follows: under setting [1], 0.35; under setting [2], 0.412; under setting [3], 0.319; under setting [4], 0.408.

`N[C@@H]1C[C@H]1c1ccccc1` [Tranylcypromine (2-PCPA) HCl]: the fractional viability is, setting by setting: under setting [1], 0.812; under setting [2], 0.926; under setting [3], 0.805; under setting [4], 0.857.

Take `Cn1cc(C2=C(c3cn(C4CCN(Cc5ccccn5)CC4)c4ccccc34)C(=O)NC2=O)c2ccccc21`: the fractional viability was determined as 0.952 under setting [1], 0.961 under setting [2], 0.948 under setting [3] and 0.916 under setting [4].

Take `C[C@@H]1CC[C@@]2(OC1)O[C@H]1C[C@H]3[C@@H]4CC=C5C[C@@H](O[C@@H]6O[C@H](CO)[C@@H](O[C@@H]7O[C@@H](C)[C@H](O)[C@@H](O)[C@H]7O)[C@H](O)[C@H]6O[C@@H]6O[C@@H](C)[C@H](O)[C@@H](O)[C@H]6O)CC[C@]5(C)[C@H]4CC[C@]3(C)[C@H]1[C@@H]2C` [Dioscin]: the fractional viability turned out to be 0.0559 under setting [1], 0.0816 under setting [2], 0.0468 under setting [3] and 0.0196 under setting [4].

`C=CCN1CC[C@]23c4c5ccc(O)c4O[C@H]2C(=O)CC[C@@]3(O)[C@H]1C5` [Naloxone HCl] had a fractional viability under setting [1] of 0.991, a fractional viability under setting [2] of 1.06, a fractional viability under setting [3] of 0.856 and a fractional viability under setting [4] of 0.974.

`Cc1cccc(C)c1NC(=O)CN1CCCC1=O` [Nefiracetam]: the fractional viability runs as follows: under setting [1], 0.909; under setting [2], 1.08; under setting [3], 1.02; under setting [4], 1.16.

In turn, `Cc1cccc(Cc2c[nH]cn2)c1C` [Detomidine HCl] yielded a fractional viability under setting [1] of 1.07, a fractional viability under setting [2] of 1.01, a fractional viability under setting [3] of 0.798 and a fractional viability under setting [4] of 1.1.

On to `c1ccc2c(c1)Nc1ccccc1S2` [Phenothiazine], for which the fractional viability runs as follows: under setting [1], 0.922; under setting [2], 1.14; under setting [3], 0.719; under setting [4], 0.945.

For the compound `CN1CCCCC1Cn1cc(C(=O)c2cc([N+](=O)[O-])ccc2I)c2ccccc21` (stereo unspecified), the fractional viability was 0.998 under setting [1], 1.04 under setting [2], 0.936 under setting [3] and 0.927 under setting [4].

Turning to `O=C(O)C(=O)c1cn(Cc2ccccc2)c2ccc(-c3ccc(OC(F)(F)F)cc3)cc12` [Tiplaxtinin (PAI-039)], the fractional viability runs as follows: under setting [1], 0.845; under setting [2], 1; under setting [3], 0.766; under setting [4], 0.741.

Take `O=c1ccc2cc(O[C@@H]3O[C@H](CO)[C@@H](O)[C@H](O)[C@H]3O)c(O)cc2o1` [Esculin]: the fractional viability amounted to 0.983 under setting [1], 1.21 under setting [2], 0.762 under setting [3] and 1.04 under setting [4].

On to `O=C(NCC1CCOCC1)c1cnc(Nc2ccc(Cl)cc2Cl)nc1C(F)(F)F`, for which the fractional viability under setting [1] was found to be 1.03, the fractional viability under setting [2] is 1.32, the fractional viability under setting [3] was found to be 0.768 and the fractional viability under setting [4] came to 1.19.

Take `CC(=O)O[C@H]1C[C@@H]2CC[C@@H]3[C@H](CC[C@@]4(C)[C@H]3C[C@H]([N+]3(C)CCCCC3)[C@@H]4OC(C)=O)[C@@]2(C)C[C@@H]1[N+]1(C)CCCCC1` [Pancuronium dibromide]: the fractional viability under setting [1] stood at 0.922, the fractional viability under setting [2] was 1.21, the fractional viability under setting [3] was found to be 0.832 and the fractional viability under setting [4] was found to be 1.06.

For `Cc1cc(O)ccc1Cl` [Chlorocresol], the fractional viability is 0.904 under setting [1], 1.12 under setting [2], 0.821 under setting [3] and 0.994 under setting [4].

For the compound `c1cc2c(cc1[C@H]1OC[C@H]3[C@@H]1CO[C@@H]3c1ccc3c(c1)OCO3)OCO2` [Sesamin], the fractional viability is, setting by setting: under setting [1], 0.954; under setting [2], 0.976; under setting [3], 0.725; under setting [4], 1.08.

In turn, `O=[N+]([O-])/C=C/c1ccc2c(c1)OCO2` gave a fractional viability under setting [1] of 0.362, a fractional viability under setting [2] of 0.336, a fractional viability under setting [3] of 0.0604 and a fractional viability under setting [4] of 0.0474.

For the compound `Fc1cc(F)c2c(c1)[C@H]1C=CC[C@H]1C(c1cccnc1)N2` (stereo partly specified) [Golgicide A], the fractional viability reads like this: under setting [1], 0.103; under setting [2], 0.146; under setting [3], 0.0639; under setting [4], 0.0921.

For `Nc1nc(N)nc(NC2CC2)n1` [Cyromazine], the fractional viability reads like this: under setting [1], 0.724; under setting [2], 1.06; under setting [3], 0.907; under setting [4], 1.06.

Consider `CN1[C@@H]2CC[C@H]1C[C@@H](OC(=O)[C@H](CO)c1ccccc1)C2` [Hyoscyamine], for which the fractional viability by setting is: under setting [1], 1.13; under setting [2], 1.03; under setting [3], 0.903; under setting [4], 1.03.

Turning to `NCCc1ccc(S(=O)(=O)F)cc1`, the fractional viability is 0.958 under setting [1], 1.1 under setting [2], 0.941 under setting [3] and 0.778 under setting [4].

As for `Cc1cccc(C(C)c2c[nH]cn2)c1C` (stereo unspecified) [Medetomidine HCl], the fractional viability turned out to be 1.09 under setting [1], 1.09 under setting [2], 0.755 under setting [3] and 1.03 under setting [4].

Turning to `C=C[C@H]1CN2CC[C@H]1C[C@H]2[C@H](O)c1ccnc2ccccc12` [Cinchonidine], the fractional viability turned out to be 1.13 under setting [1], 1.12 under setting [2], 0.817 under setting [3] and 1 under setting [4].

On to `COC[C@H]1OC(=O)c2coc3c2[C@@]1(C)C1=C(C3=O)[C@@H]2CCC(=O)[C@@]2(C)C[C@H]1OC(C)=O` [Wortmannin], for which the fractional viability by setting is: under setting [1], 0.837; under setting [2], 0.906; under setting [3], 0.191; under setting [4], 0.467.

Turning to `C/C(=C\c1csc(C)n1)[C@@H]1C[C@@H]2O[C@]2(C)CCC[C@H](C)[C@H](O)[C@@H](C)C(=O)C(C)(C)[C@@H](O)CC(=O)O1` [Epothilone B (EPO906, Patupilone)], the fractional viability is, setting by setting: under setting [1], 0.275; under setting [2], 0.321; under setting [3], 0.3; under setting [4], 0.302.

As to `C=CC[C@]1(O)CC[C@H]2[C@@H]3CCC4=CC(=O)CCC4=C3C=C[C@@]21C` [Altrenogest], the fractional viability reads like this: under setting [1], 0.986; under setting [2], 1.12; under setting [3], 0.849; under setting [4], 1.01.

As to `O=c1[nH]c2ccccc2n1CCCN1CCC(n2c(=O)[nH]c3cc(Cl)ccc32)CC1` [Domperidone], the fractional viability stood at 1.14 under setting [1], 1 under setting [2], 0.812 under setting [3] and 0.834 under setting [4].

Regarding `CC1(C)CC(O)CC(C)(C)N1[O]` [Tempol], the fractional viability is, setting by setting: under setting [1], 0.995; under setting [2], 1.15; under setting [3], 0.799; under setting [4], 1.17.

`O=S(=O)(CC1CS1)c1ccc(Oc2ccccc2)cc1` (stereo unspecified): the fractional viability turned out to be 0.744 under setting [1], 0.851 under setting [2], 0.163 under setting [3] and 0.172 under setting [4].

In the case of `CN1[C@@H]2CC(O)C[C@H]1[C@@H]1O[C@@H]12` (stereo partly specified) [Scopine], the fractional viability reads like this: under setting [1], 1.04; under setting [2], 1.09; under setting [3], 0.915; under setting [4], 1.07.

For the origin of these results see the supplement of paper PMC5919970.
